Consider 31 molecules from ChEMBL document CHEMBL1139479, “Enantioselective nonsteroidal aromatase inhibitors identified through a multidisciplinary medicinal chemistry approach” (J Med Chem, 2005).

The structures appear in SMILES notation.

One data set deals with T1, Aromatase (Homo sapiens, UniProt P11511).
T1 sequence (P11511 whole entry): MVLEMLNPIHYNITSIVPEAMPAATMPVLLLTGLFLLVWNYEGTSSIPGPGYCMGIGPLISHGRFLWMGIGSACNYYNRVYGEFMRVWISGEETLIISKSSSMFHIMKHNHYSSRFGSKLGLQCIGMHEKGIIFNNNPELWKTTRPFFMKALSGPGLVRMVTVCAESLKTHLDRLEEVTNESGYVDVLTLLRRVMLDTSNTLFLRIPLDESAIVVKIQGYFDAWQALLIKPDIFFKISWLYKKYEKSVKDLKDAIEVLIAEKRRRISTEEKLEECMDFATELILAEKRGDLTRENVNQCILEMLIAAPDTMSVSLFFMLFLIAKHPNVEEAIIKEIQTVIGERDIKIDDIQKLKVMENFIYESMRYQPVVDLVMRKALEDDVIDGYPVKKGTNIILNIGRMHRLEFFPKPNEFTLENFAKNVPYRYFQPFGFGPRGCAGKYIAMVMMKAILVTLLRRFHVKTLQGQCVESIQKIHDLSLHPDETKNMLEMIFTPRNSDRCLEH

The target in data set [1] is T2, CYP17 (steroid 17-alpha-hydroxylase/17,20 lyase) (Homo sapiens, UniProt P05093).
T2 sequence (P05093 whole entry): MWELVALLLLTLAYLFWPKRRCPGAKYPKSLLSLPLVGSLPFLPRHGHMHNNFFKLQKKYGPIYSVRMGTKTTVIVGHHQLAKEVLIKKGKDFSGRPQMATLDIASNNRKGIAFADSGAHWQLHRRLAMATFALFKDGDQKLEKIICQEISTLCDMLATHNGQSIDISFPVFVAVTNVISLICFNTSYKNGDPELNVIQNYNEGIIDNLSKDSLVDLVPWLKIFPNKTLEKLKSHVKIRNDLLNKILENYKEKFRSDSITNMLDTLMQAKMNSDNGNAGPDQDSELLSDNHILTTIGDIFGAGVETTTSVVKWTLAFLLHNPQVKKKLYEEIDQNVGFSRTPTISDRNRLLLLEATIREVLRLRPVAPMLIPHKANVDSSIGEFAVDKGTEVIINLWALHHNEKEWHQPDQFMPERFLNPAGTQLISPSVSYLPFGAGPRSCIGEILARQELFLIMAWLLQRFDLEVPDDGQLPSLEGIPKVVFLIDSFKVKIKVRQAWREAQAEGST
As to the kind of experiment: in vitro.

The term IC50 denotes the point on the concentration scale where inhibition reaches its midpoint. Low readings indicate higher potency, high ones lower potency. On to `O=[N+]([O-])c1ccc(Cn2ccnc2)cc1`, for which 28.2 nM corresponded to half-maximal inhibition on Aromatase (IC50). `O=C(c1ccccc1)c1ccc(Cn2ccnc2)cc1`: the IC50 against Aromatase is 47.9 nM. Same read-out and setting: in the case of `CC(C)(c1ccc(C#N)cc1)n1ccnc1` it was 95.5 nM; in that of `O=c1c([C@@H](c2ccc(Br)cc2)n2ccnc2)coc2ccccc12`, 49 nM. The molecule `O=c1c([C@H](c2ccc(Br)cc2)n2ccnc2)coc2ccccc12` gave an IC50 on Aromatase of 290 nM.

For `Cc1oc2c(C#N)ccc(Cn3ccnc3)c2c1C`, the IC50 at Aromatase was 18.2 nM. Turning to `N#Cc1ccc(C(F)(c2ccc(C#N)cc2)n2ccnc2)cc1`, the 50% inhibitory concentration (IC50) on Aromatase is 871 nM. On the same count and under the same terms, in the case of `O=c1ccoc2cc(Cn3cncn3)ccc12` it was 3720 nM; in that of `N#Cc1ccc([C@@H](c2coc3ccccc3c2=O)n2ccnc2)cc1`, 630 nM; in that of `CCC(c1ccc(C#N)cc1)(c1ccc(C#N)cc1)n1cncn1`, 93.3 nM. The same measure, in the same setting: in the case of `N#Cc1ccc(C(c2ccc(C#N)cc2)n2ncnn2)cc1` it was 5.75 nM; in that of `N#Cc1ccc(C(F)(c2ccc(C#N)cc2)n2cncn2)cc1`, 61.7 nM. The same measure, in the same setting: the same measure for `N#Cc1ccc(Cn2ccnc2)c2ccccc12`: 11 nM; for `N#Cc1ccc(C(F)(c2ccc(C#N)cc2)n2ccnn2)cc1`: 95.5 nM. In turn, `N#Cc1ccccc1Cn1ccnc1` showed an IC50 against Aromatase of 47.9 nM. This IC50 is about 2-fold lower than that of the molecule before. Same read-out and setting: the same measure for `N#Cc1ccc(C(=C2CCCCC2)n2cncn2)cc1`: 95.5 nM. As a reminder, the inhibition is the relative decrease from the control value, in per cent. Low readings indicate little suppression, high ones strong suppression. As for `N#Cc1ccc([C@@H]2CCCc3cncn32)cc1` [S-FADROZOLE], in data set [1], 2.5 µM produced 7% inhibition. With `N#Cc1ccc(C2(n3ccnc3)CCCC2)cc1`, half-maximal inhibition against Aromatase (IC50) was put at 37.2 nM. Still for that read-out and setting: in the case of `N#Cc1ccc(C(c2ccc(C#N)cc2)c2cncnc2)cc1` it was 288 nM. The same measure, in the same setting: the same measure for `O=c1c([C@@H](c2ccc([N+](=O)[O-])cc2)n2ccnc2)coc2ccccc12`: 2.3 nM. Still for that read-out and setting: the same measure for `N#Cc1ccc([C@H](c2coc3ccccc3c2=O)n2ccnc2)cc1`: 110 nM; for `N#Cc1ccc(C(c2ccc(C#N)cc2)n2ccnn2)cc1`: 57.5 nM; for `N#Cc1ccc(C(F)(c2ccc(C#N)cc2)n2ncnn2)cc1`: 148 nM. At Aromatase, `Brc1ccc(Cn2ccnc2)cc1` showed an IC50 of 339 nM. Still for that read-out and setting: the same measure for `O=c1c([C@H](c2ccc([N+](=O)[O-])cc2)n2ccnc2)coc2ccccc12`: 96 nM. Still for that read-out and setting: the same measure for `N#Cc1ccc(Cn2ccnc2)cc1`: 1100 nM; for `N#Cc1ccc(C(c2ccc(C#N)cc2)c2cccnc2)cc1`: 58.9 nM; for `CC(c1ccc(C#N)cc1)(c1ccc(C#N)cc1)n1cncn1`: 43.7 nM. With `Clc1cccc(C(c2ccc3[nH]cnc3c2)n2ccnc2)c1` (stereo unspecified) [LIAROZOLE], on Aromatase, the IC50 is 44.7 nM. On the same count and under the same terms, in the case of `N#Cc1cccc(Cn2ccnc2)c1` it was 3720 nM; in that of `CC(C)(C#N)c1cc(Cn2cncn2)cc(C(C)(C)C#N)c1` [ANASTROZOLE], 15.1 nM.
